± gives the standard deviation of the averaged measurements. Some of the results follow.
System: PfAP2-LT AP2 domain (GST-tagged)
Test: gcPBM binding intensity (ln(normalized median fluorescence intensity)); higher = stronger DNA binding
Method in brief: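 Probes on an Agilent 4 × 180k array were primer-extended, double-stranded and 36 bp long, taken from intergenic genomic regions, with negative controls added. GST-tagged P. falciparum DNA-binding domains from E. coli, about 25 μg on average, were applied to the array for 1 h in 1× PBS containing 1% milk, 0.2 mg/ml BSA, 0.5% salmon testes DNA and 0.03% Triton X-100. Binding intensity, obtained after Alexa488 anti-GST antibody detection and a 488 nm scan, is the highest Masliner-normalised natural-log median intensity across replicate spots of either probe orientation.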

Sequence | gcPBM binding intensity (ln)
ATATATAATTAATTTTGTACACATAAAAAAAAAAAT [XGTACX_site6647] | 8.69 ± 0.43
AGAGAGAAAGCTATAACATGCAACAATTTTTTGAAA [TGCATGCA_site514] | 8.79 ± 0.5
ATATCTTATAATACGGTGCACTTGACATGAACAACT [GTGCAC_site9987] | 8.95 ± 0.33
ATATTTGCATGTGGTAGTACATAACATTCTTTTACA [XGTACX_site8194] | 8.85 ± 0.32
ACATATTATATATGTGTGCACATATATATATATTTA [GTGCAC_site9591] | 9.7 ± 0.33
CTTCAATTAAAATTCACACATATAAATTAAAATATT [CACACA_site6129] | 8.46 ± 0.45
TTTATTTAAAAAGTTTGTACATATATATTATTTTGA [XGTACX_site6040] | 8.54 ± 0.41
AAAAAATATTAGACTTATAAAGCATAAAGGATATTA [GTGCAC_negctrl_site588] | 8.52 ± 0.52
AATTTATTATTTTATTGTACGTATTTTTTTTTTTAT [XGTACX_site2298] | 8.89 ± 0.49
ATATTATAGTTATGAACATGCAAACATTACGAAATA [TGCATGCA_site54] | 8.76 ± 0.5
CATATATAAATATATACACACATACATACATACATA [CACACA_site5988] | 9.36 ± 0.4
TTTATATATATAATATGTACACATAATAATAATACA [XGTACX_site4862] | 8.61 ± 0.4
AAATGACATTTCAAAAGTACATATTTAATTAATTAA [XGTACX_site2919] | 8.51 ± 0.56
TCATATATTTTAATATGTACACATTTTTTTGGTATA [XGTACX_site8695] | 8.7 ± 0.5
TTTTTCTTTATTAGCACACATAATATTATATATGTG [CACACA_site2629] | 8.89 ± 0.42
TACAGACTAAAATACACACACACACGCACATATATA [CACACA_site7875] | 10.2 ± 0.18
TACATTTATATATATACACACACACTAATAAAAAAA [CACACA_site8845] | 9.54 ± 0.28
ATATGTATATATAAGGTGCAGAAAGGTGGGCAAAAG | 9.21 ± 0.5
TAAATACAGATATATACACACATATATATATTTTAT [CACACA_site5970] | 9.12 ± 0.35
ATAAAAAAGAAACAAACACACATACATACAAACAAA [CACACA_site4256] | 9.47 ± 0.33
CTTTTGTCATTCTTTTGTACACAGTTTGAAATATGT [XGTACX_site1457] | 9.09 ± 0.54
AAATAGAGAAATACAAGTACATATCAAACCAATATA [XGTACX_site1192] | 9.04 ± 0.47
ATAATAAATAAATAATGTACATATGAAAGAATAAAT [XGTACX_site8355] | 9.11 ± 0.53

Sequence | gcPBM binding intensity (ln)
ATTCTTTTAAAATAGGTGCTAAAAATAATATGTTAC | 8.54 ± 0.49
TTCACCAGTTGGTAAACATGCAATTTTCCATACAAG [TGCATGCA_site267] | 8.48 ± 0.39
AAAAAAAACGGACACACACACATACCCATACATACA [CACACA_site5574] | 10.1 ± 0.41
ATATAAATACATAAATGTACTTACCATTTAAATATG [XGTACX_site5254] | 8.79 ± 0.38
ATTATTTGTTTAATGAGTACGAAGACAAATTTTACC [XGTACX_site5223] | 8.63 ± 0.28
AAAGGAAAAAAAAGCACACACAATATTACTTGAAAT [CACACA_site2588] | 9.43 ± 0.38
GTACTATACAAAGATGATAATCAATATATATATATA [XGTACX_negctrl_site264] | 9.17 ± 0.45
TATATACACAGACACACACACACATACACGCACATA [CACACA_site6909] | 10.1 ± 0.22
AAAGAAAGAAGAAATTGTACATAATAAATAAGTAAA [XGTACX_site3311] | 8.79 ± 0.52
ATATAAACAATATTTTGTACATAATTTTATGAGCAT [XGTACX_site6933] | 8.62 ± 0.43
GCATATGTTTATTGCACACACCAAAAAGAAAACATA [CACACA_site4384] | 9.32 ± 0.36
AATATATTTTTTGGTTGTACAGAGATCTTTGTAGAA [XGTACX_site1707] | 8.44 ± 0.43
TTTTTATATTTAATGTGTCCTCACTTAAAAGGATGA [XGTACX_site2744] | 8.36 ± 0.47
TATAATAATTATACATGTACACATTATTTGGATAAA [XGTACX_site5552] | 8.65 ± 0.42
ATTCTCCAAGTTTGATGTACACATATGACGACGGCG [XGTACX_site4912] | 8.74 ± 0.45
AAAAATTATAGAAAAGTGCAATACATGTTACACCAT | 8.67 ± 0.51
TACAATAAGGATAAGTGTACATATGTGCATACATAT [XGTACX_site7188] | 8.96 ± 0.35
CATATAGCATAATCATGTACACATACAACAAATAGG [XGTACX_site1589] | 9.05 ± 0.44
AAACTTGTAAGAAACACACACACACCCATATATATA [CACACA_site797] | 9.96 ± 0.15
AAATTGGGGCTTGTTACACACTTAGTGGGAGTTCTA [CACACA_site4485] | 9.01 ± 0.16
TATACCAGTTTTAAAAGTACTTGTGCATAAAAAATA [XGTACX_site4794] | 8.7 ± 0.38
TTACGATTATACAAAAGTACATGTATTACACAATAT [XGTACX_site5138] | 8.85 ± 0.35
